The text below walks through data of PubChem BioAssay AID463173 (ICCB-Longwood Screening Facility, Harvard Medical School, 2010).

Each structure is given as a SMILES string. About 1,700 (3.3%) of roughly 52,000 compounds were called active. Cut-off read from the data, not from the text of the source: active = survival mostly below about 52% (no sharp cut-off); inactive = mostly above about 56%. The list shows a part of the results.

This test has as its system Wild type. Put plainly: growth inhibition of S. aureus wild type versus tarO mutant, primary screen, teichoic acid synthesis inhibitors, RN4220, OD600 (AID 463173). Particulars: S. aureus RN4220 wild type/DeltatarO growth, OD600, 18 h, stronger effect = lower value, screened at 18.75 µg/mL (by protocol).
Take `COCCNC(=O)C1CCN(Cc2cc3ccccc3n2Cc2ccc(C)cc2)CC1`: the survival is inactive: 73%.

In the case of `COc1ccccc1NC(=O)C1=C(C)Nc2nc(SCc3ccccc3)nn2C1c1cccc(O)c1` (stereo not given), the survival is inactive: 69%.

`O=C(CSCc1ccccc1)Nc1nccs1`: the survival was inactive: 101%.

For the compound `COc1ccc(OC)c(NS(=O)(=O)c2ccc(-n3cccn3)cc2)c1`, the survival was inactive: 78%.

Take `O=C(COc1ccc(F)cc1)Nc1nnc(S(=O)(=O)N2CCCC2)s1`: the survival is inactive: 73%.

Consider `COc1ccc(NC(=O)c2nnn(Cc3nc(-c4cc(OC)c(OC)c(OC)c4)oc3C)c2C)cc1Cl`, for which the survival is inactive: 155%.

In the case of `COCCCNC(=O)Cn1c(=O)n(-c2ccc(C)c(C)c2)c(=O)c2c3c(sc21)CCCCC3`, the survival is inactive: 99%.

For `CCCCNC(=O)C(CC)Sc1nc2ccccc2c(=O)n1Cc1ccco1` (stereo not given), the survival is inactive: 70%.

As to `CCC(C)n1c(=O)c2sccc2n2c(CCCC(=O)NCc3ccccc3Cl)nnc12` (stereo not given), the survival is inactive: 102%.

As to `COc1cc(NC(=O)C2CCN(S(=O)(=O)Cc3ccccc3)CC2)c(OC)cc1Cl`, the survival was inactive: 84%.

Turning to `COCCNC(=O)c1sc2ncccc2c1-n1c(C)ccc1C`, the survival was inactive: 88%.

Consider `Cc1cc(C)n2nc(CNC(=O)c3c(F)cccc3F)nc2n1`, for which the survival was inactive: 77%.

Consider `Cc1cccc(N(C)S(=O)(=O)c2nnc(NC(=O)c3cccs3)s2)c1`, for which the survival is inactive: 38%.

Consider `Cc1ccc(C(=O)c2sc(Nc3ccccc3)c(S(=O)(=O)c3ccccc3)c2N)c(C)c1`, for which the survival was inactive: 127%.

Consider `CCOC(=O)c1cccc(NC(=O)Cn2c(=O)c3cccn3c3ccccc32)c1`, for which the survival is inactive: 121%.

As for `CC(C)(C)OC(=O)N1CCC(c2c(C(=O)N3CCN(c4ccccn4)CC3)cnn2-c2ccc(F)cc2)CC1`, the survival is inactive: 72%.

`Cc1ccc(S(=O)(=O)NNC(=S)NCC2CCCO2)cc1` (stereo not given): the survival is inactive: 100%.

In the case of `COc1ccc2c(c1)c(=O)c(S(=O)(=O)c1ccc(F)cc1)cn2Cc1ccccc1Cl`, the survival was inactive: 81%.

For `Cc1ccc(-c2cn3cccnc3n2)cc1NC(=O)Nc1ccc(F)cc1`, the survival is inactive: 152%.

For `O=C(c1ccc2c(c1)OCO2)c1cn(Cc2ccc(Cl)cc2)c2ccc(F)cc2c1=O`, the survival was inactive: 70%.

For `COc1cccc2c(C)cc3nnc(SCC(=O)Nc4ccc(C)cc4)n3c12`, the survival was inactive: 52%.

`COCCNC(=O)CN1C(=O)c2cccnc2Sc2ccccc21`: the survival is inactive: 119%.

For the compound `O=C(Cn1ncc2c1-c1ccccc1OC2)N1CCN(c2ccccc2)CC1`, the survival was inactive: 68%.

On to `Nn1c(Cc2ccccc2)nc2cc(Cl)ccc2c1=O`, for which the survival is inactive: 117%.

Turning to `CC1CCC(NC(=O)c2ccc(CS(=O)(=O)c3ccc(Cl)cc3)o2)CC1` (stereo not given), the survival was inactive: 93%.

Regarding `CCCCOc1ccc(C(=O)N2CCCCC2CCN2CCOCC2)cc1` (stereo not given), the survival is inactive: 84%.

Consider `CCN(CC)S(=O)(=O)c1ccc(C(=O)NCCSc2c(-c3ccc(F)cc3)[nH]c3ccccc23)cc1`, for which the survival is inactive: 77%.

Consider `CCC(=O)Nc1ccc2nc(SCCOc3ccc(C)cc3OC)sc2c1`, for which the survival was inactive: 84%.

With `Cc1cc(Cl)ccc1OCC(=O)N(Cc1sccc1C)C1CCS(=O)(=O)C1` (stereo not given), the survival was inactive: 85%.

Consider `CC(=O)c1ccc(NC(=O)CSc2nc(-c3ccc(C)cc3)nc3c2c(=O)n(C)c(=O)n3C)cc1`, for which the survival was inactive: 75%.

As to `CCn1c(=O)cc(OCC(=O)N2CCN(c3ccc(C)cc3)C(C)C2)c2ccccc21` (stereo not given), the survival is inactive: 80%.

As to `CC(C)OCCCNC(=O)CN1C(=O)c2cccnc2Sc2ccccc21`, the survival was inactive: 64%.

On to `CCCOc1cccc(C(=O)N(Cc2sccc2C)C2CCS(=O)(=O)C2)c1` (stereo not given), for which the survival is inactive: 114%.

Take `COc1ccc(CNC(=O)c2cnc(N(C)C)nc2)cc1`: the survival is inactive: 102%.

Take `CCOc1nc(Nc2ccccc2)nc(OCC)n1`: the survival was inactive: 111%.

In the case of `Cn1c(=O)n(Cc2ccccc2)c(=O)c2c1nc1n2CCN1c1ccccc1`, the survival is inactive: 91%.

`O=C(Cn1cc(SCc2c(F)cccc2Cl)c2ccccc21)N1CCCCC1`: the survival is inactive: 86%.

On to `Cc1cccn2cc(-c3cccc(NC(=O)C(C)C)c3)nc12`, for which the survival is inactive: 69%.

In the case of `CCN(CC)CCNC(=O)CN1N=C(c2ccc(OC)cc2)CCC1=O`, the survival was inactive: 86%.

In the case of `CCN(CC)CCNC(=O)C(=O)NCC(c1ccc2c(c1)OCO2)N1CCOCC1` (stereo not given), the survival was inactive: 82%.

For `CCCN1C(=O)c2[nH]nc(-c3ccccc3)c2C1c1cccc(O)c1` (stereo not given), the survival is inactive: 76%.

Consider `CCOc1ccc(-c2nnc(SCC(=O)NCc3ccccc3Cl)o2)cc1`, for which the survival was inactive: 85%.

On to `O=C(CSc1cn(CC(=O)N2CCCCC2)c2ccccc12)NCc1ccccc1`, for which the survival is inactive: 97%.

As for `CCOc1ccc(CNC(=O)C2CCN(c3nnc(-n4c(C)ccc4C)s3)CC2)cc1`, the survival is inactive: 88%.

For the compound `Cc1ccc(NC(=O)c2oc3ccccc3c2NC(=O)Cc2ccccc2)cc1`, the survival is inactive: 77%.

On to `O=C(OCCCN1CCOCC1)c1ccc(O)cc1O`, for which the survival was inactive: 98%.

Take `COc1ccccc1NC(=O)CSC1=Nc2ccccc2C2=NC(Cc3ccccc3)C(=O)N12` (stereo not given): the survival was inactive: 146%.

As to `CCOc1ccc(S(=O)(=O)N2CCN(c3cccc(C(F)(F)F)c3)CC2)cc1OCC`, the survival is inactive: 72%.

`CCOC(=O)N1CCc2c(sc3c2c(=O)n(Cc2ccccc2)c(=O)n3Cc2cccc(C)c2)C1`: the survival is inactive: 92%.

In the case of `Cc1cc(C)c(S(=O)(=O)NCC(c2ccco2)N2CCOCC2)c(C)c1` (stereo not given), the survival is inactive: 82%.

Consider `CCc1nc2c(cnn2-c2ccc(C)cc2)c(=O)n1Cc1ccccc1`, for which the survival was inactive: 22%.

Regarding `COc1ccc(Cl)cc1C(=O)NCc1ccco1`, the survival was inactive: 106%.

Regarding `CCc1ccc(NC(=O)Cn2c(=O)n(CCCCC(=O)NCc3ccccc3Cl)c(=O)c3ccccc32)cc1`, the survival was inactive: 90%.

In the case of `Cc1ccc(-c2onc(C)c2C)cc1S(=O)(=O)NCc1ccc(N(C)C)cc1`, the survival was active: -4%.

As for `COc1cccc(Cn2c(=O)n(-c3cccc(Cl)c3)c(=O)c3c4c(sc32)CN(C(C)=O)CC4)c1`, the survival is inactive: 86%.

Take `C=CCC(CC=C)(CNC(=O)C(=O)Nc1ccc(C)cc1)c1ccccc1`: the survival was inactive: 98%.

Consider `CCOc1cc(OCC)cc(C(=O)Nc2cccc(-c3nc4ccccc4[nH]3)c2)c1`, for which the survival was inactive: 58%.

Take `CCOc1ccc(NC(=O)CN2CCN(S(=O)(=O)c3ccc(OC)cc3)CC2)cc1`: the survival is inactive: 81%.

In the case of `O=C(NCc1ccccc1)C(=O)NCC(c1ccco1)S(=O)(=O)c1ccc(Cl)cc1` (stereo not given), the survival was inactive: 69%.

Regarding `CN(C)c1nc(C2CC2)nc2c1nnn2Cc1ccccc1Cl`, the survival is inactive: 124%.

In the case of `COc1ccccc1-c1nnc(C2CCN(C(=O)c3cccc(C)c3)CC2)o1`, the survival was inactive: 80%.

On to `COc1ccc(NC(=O)c2cc(C)nc3c2c(C)nn3-c2ccc(C)cc2)cc1OC`, for which the survival is inactive: 75%.

Consider `CCOC(=O)C1CC1c1ccccc1` (stereo not given), for which the survival was inactive: 118%.

Turning to `CC(C)(O)C1Cc2cc3ccc(=O)oc3cc2O1` (stereo not given), the survival is inactive: 97%.

Take `CCn1c(=O)cc(OCC(=O)NCc2ccccc2OC)c2ccccc21`: the survival is inactive: 74%.

Consider `CCCCN(C)CCCNC(=O)C1CCN(S(=O)(=O)CC)CC1`, for which the survival was inactive: 120%.

On to `Cc1c2cnn(CC(=O)N3CCN(c4ccccc4)CC3)c(=O)c2c(C)n1Cc1ccccc1Cl`, for which the survival was inactive: 94%.

With `CC(=O)C1=C(c2ccccc2)N(C(C)=O)n2c(nnc2C2CCCCC2)S1`, the survival was inactive: 159%.

Regarding `CCCCN(C)CCCNC(=O)CN1N=C(c2ccc(OC)cc2)CCC1=O`, the survival is inactive: 80%.

For the compound `CC(=O)c1ccc(NC(=O)CCc2c(C)nc3c(c2C)c(=O)n(C)c(=O)n3C)cc1`, the survival was inactive: 72%.

`CSc1ncc(Cl)c(C(=O)Nc2ccc(S(=O)(=O)Nc3nccc(C)n3)cc2)n1`: the survival is inactive: 84%.

`COc1cc2nc(NC(=O)c3ccccc3)[nH]c(=O)c2cc1OC`: the survival was inactive: 107%.

`COc1ccc(CCNC(=O)c2cc3n(n2)CCCN(Cc2ccc(C)cc2)C3=O)cc1OC`: the survival is inactive: 82%.

Turning to `Cc1ccc(CCNC(=O)c2ccc3[nH]c(C)c(C)c3c2)cc1`, the survival was inactive: 135%.

With `Cc1cc(C)cc(-n2cnc3cc(C(=O)NC4CCCCCC4)ccc32)c1`, the survival was inactive: 87%.

As to `CCn1cc2nc(SCC(=O)Nc3ccc(C)cc3)n(Cc3ccc(C)cc3)c(=O)c2n1`, the survival was inactive: 68%.

As for `O=C(NCc1ccccc1F)c1sc2ncccc2c1-n1cccc1`, the survival was inactive: 88%.

For the compound `O=S(=O)(NCCS(=O)(=O)N1CCN(c2cccc(Cl)c2)CC1)c1ccc(F)cc1`, the survival was inactive: 75%.

On to `CCOc1ccc(C2=NC(c3cccs3)=Nc3ccc(CC)cc3N2)cc1OCC`, for which the survival is inactive: 77%.

As for `COC(=O)CN1C(=O)C(C)(C)c2cc(S(=O)(=O)Nc3ccc(Br)cc3F)ccc21`, the survival was inactive: 57%.

`Cc1[nH]c2ccc(Br)cc2c1CCNC(=O)c1cc2ccccc2oc1=O`: the survival was inactive: 64%.

Turning to `CCN(CC)c1ccc(NC(=O)CN2CCN(c3ccccc3F)CC2)cc1`, the survival is inactive: 84%.

As for `CC(=O)N1CCCc2cc(S(=O)(=O)N3CCCC(C(=O)Nc4ccc(C)cc4C)C3)ccc21` (stereo not given), the survival was inactive: 83%.

Turning to `COc1ccc(-n2nc3cc(C)c(NC(=O)c4ccc(-c5ccc(Br)cc5)o4)cc3n2)cc1`, the survival was inactive: 70%.

In the case of `COc1cc(OC)cc(C(=O)Nc2cc3c(cc2N2CCOCC2)n(C)c(=O)n3C)c1`, the survival is inactive: 80%.

Take `Cc1cccc(NC(=O)CN2C(=O)C(c3ccccc3)=NC23CCC(C)CC3)c1` (stereo not given): the survival is inactive: 86%.

With `CC(=O)c1cccc(-n2c(=O)c3c4c(sc3n(Cc3cccc(C)c3)c2=O)CN(C(C)=O)CC4)c1`, the survival was inactive: 86%.

For `Cc1cc(C)n(CCc2nc3c4ccccc4nc(N4CCN(c5cccc(C)c5C)CC4)n3n2)n1`, the survival is inactive: 74%.

In the case of `CCOC(=O)c1cccc(NC(=O)CCS(=O)(=O)c2ccc3c(c2)CC(=O)N3C)c1`, the survival is inactive: 135%.

As to `Cc1ccc(S(=O)(=O)C2(C(=O)Nc3ccc(Cl)c(C(F)(F)F)c3)CC2)cc1`, the survival was active: 41%.
